Assay results reported in PubChem BioAssay AID743279 (National Center for Advancing Translational Sciences (NCATS), 2014).
About 17,000 (4.7%) of roughly 360,000 compounds were called active. The shares of active, inactive and inconclusive entries below differ from those in the screen. Cut-off read from the data, not from the text of the source: active = activity change below about -50%; inconclusive = mostly about -30% to -49%; inactive = weaker than that.

Assay: qHTS for Inhibitors of Inflammasome Signaling: IL-1-beta AlphaLISA Primary Screen
Conditions: THP-1 LPS/ATP IL-1B secretion, 16 h; at 57.5 µM, stronger effect = lower value
How it was run: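 THP-1 cells pretreated 1 hr with compounds (up to 57.5 uM final), then stimulated with LPS (250 ng/mL final) plus ATP (1.25 mM final); secreted IL-1B measured by AlphaLISA after 16 hr, decreased signal indicating inhibition.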
% is set by controls: 0 for no effect and ±100 for the full control effect.

Question: With CC(=O)c1ccc(NC(=O)c2ccc(C)c(Br)c2)cc1 as the compound, how does the activity change read?
Answer: active: -57.6%

Question: With CCCCNC(=O)CNC(=S)N(Cc1ccc(C)cc1)Cc1ccco1 as the compound, how does the activity change read?
Answer: inconclusive: -45.8%

Question: Which activity change does the source give for Cc1cc(C)c(C)c(S(=O)(=O)N2CCC(C(=O)N3CCN(c4ccc(F)cc4)CC3)CC2)c1C here?
Answer: inconclusive: -38.1%

Question: With Fc1ccc(-c2nc3c4ccccc4ccn3c2Cc2ccccc2)cc1 as the compound, how does the activity change read?
Answer: inactive: 20.7%

Question: Which activity change does the source give for O=C(Nc1ccc(O)cc1)c1ccc(NC(=O)C2CCCO2)cc1 (stereo not given) here?
Answer: inactive: -9.23%

Question: Which activity change does the source give for COc1ccc(OC)c(-c2cc(C(=O)N/N=C(\C)c3cccnc3)c3ccccc3n2)c1 here?
Answer: inconclusive: -32.2%

Question: Which activity change does the source give for COc1nc(N)nc(NC(=O)c2cccs2)c1N=O here?
Answer: active: -87.1%

Question: With COc1ccc(/C=C/C(=O)OC2CCCCC2CN(C)C)cc1 (stereo not given) as the compound, how does the activity change read?
Answer: inconclusive: -49.8%

Question: For CCN(C(=O)COC(=O)c1ccccc1NCCO)c1cccc2ccccc12, which activity change is on record?
Answer: inconclusive: -33.8%

Question: Which activity change does the source give for S=C(NCCc1ccccc1)Nc1c(Cl)cccc1Cl here?
Answer: active: -63.7%

Question: With CCn1cnc2cc(NCc3ccc(N(C)C)cc3)ccc21 as the compound, how does the activity change read?
Answer: inconclusive: -46%

Question: With Cc1cccc(S(=O)(=O)c2c(N)n(-c3ccccc3)c3nc4ccccc4nc23)c1 as the compound, how does the activity change read?
Answer: inconclusive: -42.2%

Question: For C=CCn1c(SCc2nc3c(c(=O)[nH]c(=O)n3CCCC)n2CCC)nnc1-c1ccccc1, which activity change is on record?
Answer: inconclusive: -37.9%

Question: With Clc1cccc(/C(Cc2nc3ccccc3[nH]2)=N\Nc2ccccc2)c1 as the compound, how does the activity change read?
Answer: active: -78.2%

Question: Which activity change does the source give for COc1ccc(Nc2nc(C)cc(C)n2)cc1Cl here?
Answer: inactive: 1.52%

Question: For O=C(NC(=S)Nc1ccc(N2CCOCC2)cc1)c1ccccc1, which activity change is on record?
Answer: inconclusive: -35.6%

Question: With CN1CCN(S(=O)(=O)c2cccc(C(=O)Nc3cccc(S(N)(=O)=O)c3)c2)CC1 as the compound, how does the activity change read?
Answer: inactive: 6.7%

Question: With CC1CCC(N(CCCN)Cc2ccco2)CC1C (stereo not given) as the compound, how does the activity change read?
Answer: inconclusive: -39.2%

Question: For Cc1ccc(NC(=O)Nc2ccc([N+](=O)[O-])cc2)nc1, which activity change is on record?
Answer: inconclusive: -40.1%

Question: For O=C(Nc1ccc(N2CCN(C(=O)c3ccco3)CC2)cc1)c1ccccc1F, which activity change is on record?
Answer: inactive: -23.9%

Question: Which activity change does the source give for O=C(c1ccc(Cl)c(Cl)c1)N(Cc1ccco1)c1ccc(O)cc1 here?
Answer: inconclusive: -34%

Question: For OC(CCCN1CCC(O)(c2ccc(Cl)cc2)CC1)c1ccc(F)cc1 (stereo not given), which activity change is on record?
Answer: inconclusive: -36.7%

Question: For Cc1ccc(Cn2c(Cc3ccccc3)nc3ccccc32)cc1, which activity change is on record?
Answer: inactive: 7.89%

Question: Which activity change does the source give for Cc1ccc(S(=O)(=O)N2C[C@H]3n4c(=O)ccc(=O)n4C[C@H](OC(=O)NCc4ccco4)[C@@]3(O)C2)cc1 here?
Answer: active: -54.4%

Question: With C=C1[C@@H](O)[C@H](Cc2ccccc2)N(Cc2ccccc2Br)S1(=O)=O as the compound, how does the activity change read?
Answer: active: -102%

Question: With CN(C)C(=O)c1ccc(NC(=O)c2cc(-c3ccco3)nc3ccccc23)cc1 as the compound, how does the activity change read?
Answer: inactive: 0%

Question: With COc1ccc2c(c1)N(C[C@H](C)CN(C)C)c1ccccc1S2 as the compound, how does the activity change read?
Answer: inconclusive: -48.6%

Question: Which activity change does the source give for O=C(c1ccco1)N1CCN(C(=S)Nc2cccc([N+](=O)[O-])c2)CC1 here?
Answer: inconclusive: -37%

Question: For Cc1c(C(=O)NC2CCCCC2)sc2ncnc(N3CCN(c4ccccc4)CC3)c12, which activity change is on record?
Answer: inactive: 9.46%

Question: With CC(C)c1ccc(OCC(=O)N2CCCCCC2)c(Br)c1 as the compound, how does the activity change read?
Answer: inconclusive: -47.7%

Question: Which activity change does the source give for Cc1ccc(NC(=O)C2CCN(S(=O)(=O)c3ccc4c(c3)OCCO4)CC2)nc1 here?
Answer: inactive: -3.83%

Question: Which activity change does the source give for Cc1cc(C)c2cc(C#N)c(NCCOC(=O)c3ccccc3C)nc2c1 here?
Answer: active: -60.4%

Question: With Oc1c(C(Nc2ccccn2)c2ccccn2)ccc2cccnc12 (stereo not given) as the compound, how does the activity change read?
Answer: inactive: 92.9%

Question: For Cc1cc(C)nc(NC(=O)CSc2nnnn2-c2ccccc2)n1, which activity change is on record?
Answer: inactive: -11.5%

Question: With COc1cc(CC(=O)Nc2nc(-c3ccccc3)c(C(C)=O)s2)cc(OC)c1OC as the compound, how does the activity change read?
Answer: inactive: -10.8%

Question: For Cc1ccccc1CN1C(=O)c2ccccc2Sc2ccc(C(=O)NCCCN3CCOCC3)cc21, which activity change is on record?
Answer: inconclusive: -41.1%

Question: Which activity change does the source give for COc1ccccc1N1CCN(CC(O)COc2cccc3ccccc23)CC1 (stereo not given) here?
Answer: inconclusive: -36.7%

Question: With O=C(CSc1nc2ccccc2c(=O)n1-c1ccc(F)cc1F)c1c[nH]c2ccccc12 as the compound, how does the activity change read?
Answer: inconclusive: -32.3%

Question: Which activity change does the source give for O=C(NCc1ccncc1)Nc1ccc(Cc2ccc(NC(=O)NCc3ccncc3)cc2)cc1 here?
Answer: inconclusive: -39%

Question: For CC(C)Oc1cccc(C(=O)C2CCCN(Cc3cnc(N4CCCC4)s3)C2)c1 (stereo not given), which activity change is on record?
Answer: inconclusive: -31.3%

Question: For COc1cc(NS(=O)(=O)c2ccc(Nc3nc(-c4ccccc4)cs3)cc2)nc(OC)n1, which activity change is on record?
Answer: inconclusive: -30.8%

Question: Which activity change does the source give for COc1cccc(C2c3[nH]c4ccccc4c3CCN2C(=O)c2ccccc2F)c1OC (stereo not given) here?
Answer: inconclusive: -42.2%

Question: Which activity change does the source give for O=C(CSc1nc2ccccc2n1CC(=O)N1CCCC1)N1CCN(C(=O)c2ccco2)CC1 here?
Answer: inconclusive: -42%

Question: Which activity change does the source give for C/C(=N\NC(=O)c1ccccc1F)c1ccc2c(c1)Nc1ccccc1S2 here?
Answer: inconclusive: -35.1%

Question: With CCOc1ccc2[nH]c(=O)c(CN(Cc3cccs3)Cc3nnnn3C(C)(C)CC)cc2c1 as the compound, how does the activity change read?
Answer: inconclusive: -46.8%

Question: With O=C(NCc1ccc2c(c1)OCO2)c1ccc(CS(=O)Cc2cccc(Cl)c2)o1 (stereo not given) as the compound, how does the activity change read?
Answer: active: -68.2%

Question: Which activity change does the source give for O=C(COC(=O)c1cc(S(=O)(=O)N2CCOCC2)c(Cl)cc1Cl)NC1CC1 here?
Answer: active: -96.7%

Question: With CC1(C(=O)Nc2ccc(Cl)c(C(F)(F)F)c2)Cc2c(-c3ccccc3)ccnc2O1 (stereo not given) as the compound, how does the activity change read?
Answer: inactive: -16.7%

Question: Which activity change does the source give for O=C(COc1cccc2ccccc12)N/N=C/c1ccccc1OCc1ccc(C(=O)O)cc1 here?
Answer: inconclusive: -33.7%

Question: With C=CCNC(=O)c1onc(CSc2ccc(F)c(F)c2)c1C(=O)NCC=C as the compound, how does the activity change read?
Answer: inactive: -7.87%

Question: With CCOC(=O)c1ccc(NC(=O)c2cc3ccccc3o2)cc1 as the compound, how does the activity change read?
Answer: inconclusive: -37.6%

Question: Which activity change does the source give for CC(C)(CN1CCN(Cc2ccccc2)CC1)NS(=O)(=O)c1ccccc1 here?
Answer: inactive: -9.85%

Question: For COc1ccc(N2CCN(C(=O)c3cccnc3SCc3cccc(Br)c3)CC2)cc1, which activity change is on record?
Answer: inconclusive: -31%

Question: For CS(=O)(=O)c1nc(S(=O)(=O)c2ccc(Cl)cc2)c(NCc2ccccn2)s1, which activity change is on record?
Answer: inconclusive: -32.4%

Question: Which activity change does the source give for COc1nc(N2CCCC2)nc(-n2nnc(C(C)=O)c2C)n1 here?
Answer: inactive: -7.8%
